Screen size: about 150,000 compounds; about 540 (0.36%) showed an effect of 50% or more. This is one part of the list.
Each compound was assayed on Plasmodium falciparum (assay: Primary screen in NF54 nanoGlo assay, in single point, at 2uM, 72h; a lower Z score goes with more inhibition). Details: timepoint 72 hour.
Assay type: functional, Erythrocyte

| SMILES | % Inhibition | Z score |
| --- | --- | --- |
| Cc1cccc(N2CCN(c3ccc(NS(=O)(=O)c4cccc(F)c4)cc3C(=O)O)C[C@@H]2C)c1 | -6% | 0.56 |
| O=C([C@@H]1Cc2ccccc2O1)N1CCC(n2ncc3c2CNC3)CC1 | -9% | 1.27 |
| CNC(=O)CC(=O)NC[C@H]1COC2(CCCCCC2)O1 | 30% | -3.34 |
| Cc1ccc(O[C@@H](C)CNC(=O)NCc2cnn(C)c2)cc1 | -5% | 0.9 |
| CC(=Cc1csc(-c2ccccn2)n1)c1nc(C)c(C#N)c(=O)[nH]1 | 13% | -1.76 |
| CN(C(=O)Cn1nnc2ccccc2c1=O)c1ccccc1 | -7% | 0.88 |
| COc1ccc(C(=O)COc2ccccc2N2C(=O)c3cc(Cl)c(Cl)cc3C2=O)cc1 | -8% | 1.01 |
| CC1(C)CN(C(=O)c2cccc3ccnn23)CCO1 | -5% | 1.01 |
| O=S(=O)(NC[C@@H](c1ccsc1)N1CCCCCC1)c1ccccc1 | 7% | -0.83 |
| O=C(N[C@@H](N1CCOCC1)C(Cl)(Cl)Cl)c1ccccc1 | 8% | -1.28 |
| Cc1ccc(CN2CCC(CC3CC3)(NC(=O)c3ccccc3)CC2)o1 | -2% | 0.35 |
| CC(=O)N(c1ccccc1)[C@H]1C[C@@H](C)N(C(=O)COc2ccccc2C)c2ccccc21 | -14% | 1.78 |
| O=C(Oc1ccc2ccccc2c1Br)N1CCCCCC1 | -12% | 1.64 |
| CCCc1cc(NCC2(N3CCOCC3)CC(OCC)C2)n2ncnc2n1 (stereo unspecified) | -1% | 0.19 |
| CCOc1ccc(S(=O)(=O)N[C@H]2CCN(c3ccc(F)cc3)C2=O)cc1 | 3% | -0.45 |
| Cc1nc(C(=O)N(Cc2ccccc2C(F)(F)F)C2CCCC2)c(=O)[nH]c1C | -10% | 1.29 |
| CN1CC(=O)N2C(CCc3ccccc3)c3[nH]c4ccccc4c3C[C@H]2C1=O (stereo partly specified) | -5% | 0.58 |
| Cc1csc([C@H](C)NS(=O)(=O)N2CCOCC2)n1 | 10% | -1.3 |
| CN(C)C[C@H]1CN(Cc2csc(-c3ncccn3)n2)CCO1 | -7% | 1 |
| CCNc1nc(C)c(C(=O)N(C)Cc2nnc(C3CC3)n2C)s1 | -4% | 0.35 |
| Cc1nnc(C2CCN(Cc3ccc(Cl)cc3Cl)CC2)s1 | -7% | 1.12 |

| SMILES | % Inhibition | Z score |
| --- | --- | --- |
| CCCCN(CC#Cc1ccccc1)C(=O)CCc1nc(C)n[nH]1 | 12% | -1.66 |
| CCN(CC)C(=O)NC[C@H]1CCCN1CC | 1% | -0.15 |
| O=C(c1cccc2sc(C(F)(F)F)nc12)N1CC[C@H](CCO)C1 | -8% | 1.02 |
| COc1ccc(S(=O)(=O)Nc2ccc(N(C)C)c(CN(C[C@H]3CCCO3)C(=O)C(C)C)c2)cc1 | -3% | 0.49 |
| Cc1cc(NC(=O)CN2CCO[C@H](C3CCC3)C2)on1 | -12% | 1.4 |
| O=C(NCC1CCOCC1)c1cccc2ccnn12 | -5% | 0.87 |
| COc1ccc(-c2cnc(C(=O)N3CCc4ccccc4C3)o2)cc1 | -25% | 4.05 |
| C[C@@H](NC(=O)NC1CCN(C)CC1)C(O)(c1ccccc1)c1ccccc1 | 3% | -0.47 |
| CO[C@H]1CS(=O)(=O)C[C@@H]1NC(=O)c1cc(C(C)C)no1 | -11% | 1.65 |
| CCc1cc(NCCCn2nc(C)c(C)c2C)ncn1 | -16% | 1.61 |
| COc1ccccc1NC(=O)c1sc2sc(C(=O)Nc3ccccc3OC)c(N)c2c1N | -4% | 0.5 |
| CNS(=O)(=O)Nc1ccc(NC(=O)c2nccnc2N)cc1 | 1% | -0.19 |
| O=C1[C@H]2CCCC[C@H]2C(=O)N1c1ncn(Cc2cccc(F)c2)n1 | -8% | 1.14 |
| CC(C)[C@H](C)n1nccc1NC(=O)c1cc(=O)[nH]c(=O)[nH]1 | 1% | -0.17 |
| O[C@@H](CNc1nc(-c2ccncc2)nc2c1CCC2)COCC1CC1 | -5% | 0.89 |
| O=C(NCCc1cccnc1)c1cnc(COc2ccccc2)nc1O | 0% | 0.01 |
| Cc1ccc(CNC(=O)CN2CCN(C(=O)Nc3ccc(Cl)cc3)CC2=O)o1 | 7% | -1.32 |
| COc1ccc2c(c1)CCc1cnc(-n3ncc(C(=O)NC[C@@H]4CCCN5CCCC[C@H]45)c3C)nc1-2 | 19% | -2.47 |
| O=C(NCc1cccc(C(F)(F)F)c1)c1ccc(CN2CCN(c3ccccc3)CC2)o1 | 6% | -0.68 |
| COc1ccc(-c2nnc3c4ccccc4nc(N4CCCN(C(=O)CC(C)(C)C)CC4)n23)cc1 | -2% | 0.27 |
| c1cc2cc(CN3CCc4[nH]ncc4C3)ccc2s1 | -5% | 0.69 |

| SMILES | % Inhibition | Z score |
| --- | --- | --- |
| CC(OC(=O)C(C)N(C)CC(F)(F)F)C1CCOC1 (stereo unspecified) | -1% | 0.08 |
| Cc1ccc(-n2ncc(C(=O)NCc3ccc(F)cc3)c2C2CCN(C(=O)OC(C)(C)C)CC2)c(C)c1 | 12% | -1.2 |
| Cc1cnc(CN(CCO)Cc2sccc2C)cn1 | -16% | 1.76 |
| Cn1nc(CNC(=O)c2ccsc2)c2c1CCCC2 | -7% | 1.36 |
| O=S(=O)(NCC1CC1)c1ccnc(N2CC3CC3(CO)C2)c1 (stereo unspecified) | -8% | 1.05 |
| O=C(Cn1ccnc1C(=O)c1cccnc1)Nc1ccc(Oc2ccccc2)cc1 | -12% | 1.9 |
| CC1=C(C)CN(C(=O)[C@H]2CCCC(=O)N2)CC1 | -14% | 1.9 |
| Cc1nccnc1N1CCC(C(=O)O)(n2ccc(C(C)(C)C)n2)CC1 | -14% | 1.82 |
| CN(C)C[C@@H]1[C@H]2CN(C(=O)NCc3cc(-c4ccc(Cl)cc4)no3)C[C@@H]12 | 7% | -1.24 |
| O=C(NC[C@H]1CCOC1)c1ccc(-c2ccc3c(c2)OC(F)(F)O3)cc1 | 12% | -1.89 |
| COC(=O)c1cc2n(n1)C[C@@](C)(C(=O)NC1CCCCC1)N(c1ccc(C)c(C)c1)C2=O | 7% | -0.85 |
| CCN1C(=O)c2c(C(=O)N3CCOCC3)ncn2C[C@@]1(C)C(=O)NCCCOC(C)C | -12% | 2.31 |
| Cc1cc(C)n(S(=O)(=O)c2cc(Cl)ccc2Cl)c(=O)c1C#N | -16% | 2.82 |
| CCOC(=O)c1[nH]c(CN(Cc2ccc(OC)cc2)S(C)(=O)=O)c(C)c1C | -8% | 0.76 |
| Cc1nn2c(=O)[nH]ncc2c1-c1ccc2c(c1)OCCO2 | -7% | 1.46 |
| Cc1cccc([C@@H]2CC(c3ccc4c(c3)OCO4)=NN2S(C)(=O)=O)c1 | 28% | -3.13 |
| Cn1cc(C[C@H]2CC(=O)N(Cc3ccc(F)c(Cl)c3)C2=O)cn1 | -1% | 0.17 |
| COc1c[nH]c(C(=O)N2CC(c3cccnc3)C2)cc1=O | -2% | 0.3 |
| O=C(Cn1cnc2ccccc21)N1CCC(Oc2ccccn2)CC1 | -4% | 0.78 |
| CCOC(=O)c1cn(CCNc2nn3cc(C4CCCC4)nc3s2)cn1 | -46% | 5.41 |
| CC(C)c1cc(N(C)CCCN2CCOCC2)n[nH]1 | -10% | 1.47 |

| SMILES | % Inhibition | Z score |
| --- | --- | --- |
| O=C(c1cn2cc(Cl)ccc2n1)N1CCC(c2nccn2CC2CC2)CC1 | -25% | 2.45 |
| Cc1cc(CN(C)c2nccc(C(C)C)n2)ccn1 | -5% | 0.54 |
| Cc1noc(C)c1CCN1CCn2c(nn(CC(=O)N(C)C)c2=O)C1 | -4% | 0.44 |
| Clc1ccc(-c2noc(-c3cccnc3NC[C@H]3CCCO3)n2)cc1 | -6% | 0.93 |
| CCc1nnsc1C(=O)NC[C@H]1COc2ccccc2O1 | 12% | -2.34 |
| CCc1nc(C#N)cc(N(C)CCN(C)CCO)n1 | -4% | 0.84 |
| CCc1nc(Cn2ccnc2-c2cccc(-c3ccco3)c2)no1 | -6% | 1.13 |
| COc1ccc(COCC(=O)Nc2cc(C(F)(F)F)n(C)n2)cc1 | -4% | 0.48 |
| CCCc1cc(N2CCN(Cc3cccc(OC)c3F)CC2)nc(C)n1 | -3% | 0.49 |
| Cc1cc(NC(=O)CCNc2ncccn2)nn1C | -3% | 0.46 |
| CC(C)N1CCc2nc(NC(=O)c3ccc(S(=O)(=O)N4CCOCC4)cc3)sc2C1 | -7% | 1.11 |
| COc1cc(C)n(CCNC(=O)CCc2ccc(F)c(C)c2)c(=O)c1 | -10% | 1.94 |
| O=C(NCCn1ccnc1)Nc1cccc(-c2ccc3c(c2)CCO3)c1 | -3% | 0.41 |
| CN(CC1CC(O)C1)C(=O)NC1CC(OCc2ccccc2)C1(C)C (stereo unspecified) | 1% | -0.1 |
| Cc1cn(C2CCCCC2)nc1NC(=O)c1ccc(F)cc1O | 5% | -0.7 |
| CC[C@H](NC(=O)c1c(Cl)c(C)nn1C)c1ncnn1CC | -7% | 1.32 |
| CNC(=O)NC[C@H]1CCN(Cc2ccc(F)cc2F)C[C@H]1N(C)C | -16% | 2.15 |
| Fc1ccccc1-c1ccc(CN2CCN([C@H]3CCN(CC(F)(F)F)C3)CC2)s1 | 7% | -0.58 |
| CC1(C)CN(C(=O)Nc2ccc(N3CCOCC3)c(F)c2)C1(C)C | 1% | -0.08 |
| CC1(C)CN(Cc2nnc(C3CC3)o2)CC[C@]1(C)O | -8% | 1.36 |
